109 molecules from PubChem BioAssay AID488969 (Vanderbilt High Throughput Screening Facility, 2010) can be followed below.

The full ranking holds about 110,000 compounds; the median of “z-score” is about -0.1, and the highest 2% start at about 2. This is one part of the list. The source made the active and inactive calls.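 The calls were made as follows: active = z-score in the third read window above 3 or below -3; inactive = the rest.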

The target in the experiment is Metabotropic glutamate receptor 8 (Rattus norvegicus) (UniProt P70579). Description: mGluR8 Gi/Go-coupled signaling modulation – cell-based, rat, thallium flux, HTS, primary screen (AID 488969). The conditions noted are these: HEK293 rat mGluR8, GIRK (G protein-gated inwardly rectifying potassium channel) thallium flux, FluoZin2; at 10 µM; stronger effect = higher value; submaximal glutamate (EC20) added with thallium.
Chain of UniProt P70579 (P70579 whole entry, looked up): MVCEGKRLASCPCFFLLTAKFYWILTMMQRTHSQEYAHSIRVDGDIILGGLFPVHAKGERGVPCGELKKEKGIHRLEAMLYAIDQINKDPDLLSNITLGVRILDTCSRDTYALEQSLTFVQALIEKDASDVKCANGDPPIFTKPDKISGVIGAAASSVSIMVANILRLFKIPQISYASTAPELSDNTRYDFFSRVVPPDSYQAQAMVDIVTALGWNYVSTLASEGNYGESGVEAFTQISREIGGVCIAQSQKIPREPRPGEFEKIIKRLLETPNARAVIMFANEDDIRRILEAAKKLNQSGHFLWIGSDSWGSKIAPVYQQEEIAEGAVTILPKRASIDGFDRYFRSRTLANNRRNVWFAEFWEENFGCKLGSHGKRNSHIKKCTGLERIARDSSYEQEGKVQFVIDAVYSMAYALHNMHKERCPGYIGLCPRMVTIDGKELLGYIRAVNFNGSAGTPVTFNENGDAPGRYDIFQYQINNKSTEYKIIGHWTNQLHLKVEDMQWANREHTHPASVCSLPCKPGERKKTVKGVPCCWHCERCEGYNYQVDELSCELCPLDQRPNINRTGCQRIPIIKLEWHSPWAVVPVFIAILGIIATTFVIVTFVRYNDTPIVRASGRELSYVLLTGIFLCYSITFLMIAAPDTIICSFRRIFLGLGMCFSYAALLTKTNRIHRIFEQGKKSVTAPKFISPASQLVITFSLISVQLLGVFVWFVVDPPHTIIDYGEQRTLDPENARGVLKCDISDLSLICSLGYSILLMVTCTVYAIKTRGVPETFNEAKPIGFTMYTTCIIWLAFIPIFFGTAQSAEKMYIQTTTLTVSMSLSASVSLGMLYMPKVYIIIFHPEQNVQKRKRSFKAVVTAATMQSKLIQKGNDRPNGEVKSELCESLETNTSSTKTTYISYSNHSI
The molecule `CCN(CC)C(=O)/C(=C\c1ccc2c(c1)OCO2)NC(=O)c1ccc(Br)cc1` came in with a z-score of -0.175.

In the case of `Clc1ccccc1-c1nnc2sc(-c3ccc(Br)o3)nn12`, the z-score came to 0.0969.

In the case of `O=C(c1ccc(CN2CCc3ccccc3C2)cc1)N1CCc2ccccc2C1`, the z-score was -0.874.

The molecule `COC(=O)c1ccc(OC)cc1OCC(=O)N1CCN(c2ccc(F)cc2)CC1` yielded a z-score of -0.137.

In turn, `Cc1cccc(N2C(=O)CSC2c2cccnc2)c1` (centres undefined) displayed a z-score of 0.57.

In turn, `Cc1cccn2c(=O)c3cc(C(=O)NC4CCS(=O)(=O)C4)sc3nc12` (centres undefined) had a z-score of -0.276.

`CN(C)S(=O)(=O)n1cnc2ccccc21`: the z-score is -0.297.

As to `COC(=O)c1ccccc1NC(=O)C1COc2ccccc2O1` (centres undefined), the z-score is -0.34.

In the case of `Cc1ccc(C)c(S(=O)(=O)N2CCN(C(C)C(=O)Nc3ccccc3-c3ccccc3)CC2)c1` (centres undefined), the z-score was 0.151.

For `COc1ccc(OC)c(CN(CCCN2CCOCC2)S(=O)(=O)c2ccc(NC(C)=O)cc2)c1`, the z-score was -0.129.

`CC(=O)N1C2CCCCC2S[C@H]2CCCCC21` (some centres undefined): the z-score was found to be 0.0384.

`COc1ccc(NC(=O)CN2CCC(C)CC2)cc1` gave a z-score of 0.468.

In the case of `CN1CCCN(S(=O)(=O)c2ccc3c(c2)OCCO3)CC1`, the z-score amounted to 0.0526.

`CCC(=O)NCc1c(Cl)cccc1-n1cccc1` had a z-score of 1.16.

Molecule `CN(C)c1ccc(N=Nc2ccccc2C(=O)OCC(=O)N2CCCCCC2)cc1` came in with a z-score of -0.0207.

The molecule `O=C(CSCc1ccccc1Cl)NNC(=O)c1ccccc1` came in with a z-score of 0.0119.

Molecule `Cc1nc2ccc3nc(NC(=O)c4ccc(S(=O)(=O)N5CCOCC5)cc4)sc3c2s1` returned a z-score of -0.108.

The molecule `CC(C)Cn1c(N)c(C(=O)COC(=O)c2cc(-c3ccco3)nc3ccccc23)c(=O)n(C)c1=O` gave a z-score of -0.566.

As for `CC(C)n1c(Nn2cnnc2)nc2ccccc21`, the z-score is -0.0561.

For `O=C(CN1C(=O)c2ccccc2S1(=O)=O)N1CCN(c2ccccc2)CC1`, the z-score is -0.193.

`Cc1ccc(NC(=O)c2ccc(NCCN)c([N+](=O)[O-])c2)cc1Cl` displayed a z-score of 0.33.

On to `CCN1CC=C2C(C#N)=C(N)C(C#N)(C#N)[C@H](c3cccc(OC)c3OC)[C@H]2C1`, for which the z-score was -2.76.

As for `O=C(CN1CCN(S(=O)(=O)c2ccccc2)CC1)NC(=O)NCc1ccccc1`, the z-score is -0.0544.

For `CCOC(=O)c1cnc2c(C)c(-c3ccccc3)[nH]n2c1=O`, the z-score was -0.434.

Regarding `CCN(CC)C1=CC(=O)OC12CCCCC2`, the z-score amounted to 0.00216.

Consider `CC(C)CCn1c(SCC#N)nc2c(sc3ccccc32)c1=O`, for which the z-score is active: 5.93.

`COC(=O)c1ccc(NS(=O)(=O)c2ccc(SC)cc2)cc1`: the z-score was active: 5.24.

Consider `CC(=O)N1CCN(C(=O)CSc2nc3c(cnn3-c3ccccc3)c(=O)[nH]2)CC1`, for which the z-score came out at 0.574.

As for `COc1cccc(N(CC(=O)NCCSc2ccc(Cl)cc2)S(C)(=O)=O)c1`, the z-score was -0.141.

Molecule `C=CCn1c(SCc2csc(C)n2)nc2sc3c(c2c1=O)CCCCC3` came in with a z-score of -0.339.

For the molecule `Nc1c(C(O)(C(F)(F)F)C(F)(F)F)ccc2ccccc12`, the z-score is -0.382.

Consider `O=C(CSc1ncccn1)N/N=C/c1cccs1`, for which the z-score was -0.191.

On to `CC(C)C[C@H](NC(=O)N1CCN(c2ccccc2)CC1)C(=O)O`, for which the z-score is -0.289.

Molecule `COc1cc(OC)c(NC(=O)c2ccco2)cc1Cl` returned a z-score of -0.103.

`c1ccc(-c2nnc(C(c3ccccc3)c3ccccc3)o2)cc1` showed a z-score of -0.326.

Turning to `COc1ccc(NC(=O)CSc2nc3ccccc3c(=O)n2CCCN2CCCCC2)c(OC)c1`, the z-score was active: 3.69.

`O=C(O)CN1C(=O)c2cccc(Oc3ccc(Cl)cc3)c2C1=O`: the z-score is -0.259.

In the case of `CC1Oc2ccccc2OC1C(=O)Nc1ccccn1` (centres undefined), the z-score came to 0.0229.

`Cc1ccc(-n2c(=O)[nH]c3c(C(N)=O)nc(-c4ccc(C)o4)nc32)cc1` yielded a z-score of -0.33.

For `Cc1ccc(/C=N/N2CCN(Cc3cccc4ccccc34)CC2)o1`, the z-score was -0.174.

`N/C(=N\OC(=O)CCCOc1ccccc1)c1ccccc1` had a z-score of 0.0166.

On to `Cc1ccc(NC(=O)c2ccc(Nc3ccccc3F)nc2)cc1`, for which the z-score was found to be 0.372.

Molecule `CCOc1ccc(-n2c(=S)sc3c(=O)[nH]c(SCC(=O)N4CCC(C)CC4)nc32)cc1` showed a z-score of -1.74.

As to `CC(/C=N/NC(=O)Cn1nccc1C)=C\c1ccc(C(C)C)cc1`, the z-score is -0.222.

`CC(C)(C)C(=O)c1sc(Nc2ccccc2)nc1N` gave a z-score of -0.773.

Take `COc1ccc(C(=O)NCc2cn3ccccc3n2)cc1`: the z-score is -1.15.

Consider `CC(C)c1ccccc1NC(=O)c1ccc(CN(c2ccccc2)S(=O)(=O)c2ccccc2)cc1`, for which the z-score came out at 0.067.

`Cc1cc(NC(=O)CCN2C(=O)c3ccccc3C2=O)no1` displayed a z-score of -0.00975.

Turning to `COc1cc(C(C)=O)ccc1COc1ccc(C(=O)OC(C)C(=O)NC(N)=O)cc1OC` (centres undefined), the z-score was -0.295.

`Cc1ccc2cc(C#N)c(N3CCCN(S(=O)(=O)c4ccccc4)CC3)nc2c1C` yielded a z-score of 0.028.

In turn, `Cn1c(=O)c2c(ncn2Cc2ccccc2)n(C)c1=O` returned a z-score of 0.312.

With `C/C(Cn1nnc2ccccc21)=N\OC(=O)c1ccccc1C`, the z-score was -0.123.

`CC(=O)NC1C(OCCOc2ccc(Cl)cc2Cl)OC(COC(C)=O)C(OC(C)=O)C1OC(C)=O` (centres undefined): the z-score is -0.133.

With `Cc1ccc(S(=O)(=O)N/N=C2/CCCCC2C2CCCCC2)cc1[N+](=O)[O-]` (centres undefined), the z-score was 0.108.

`O=C(CN1CCCCC1)Nc1nnc(-c2ccccc2)s1` gave a z-score of -0.249.

In turn, `CCN(CC)C(=O)c1sc(NC(=O)c2ccco2)c(C#N)c1C` displayed a z-score of -0.102.

As to `Cc1ccc(C(=O)CC2(O)C(=O)N(C)c3ccc(Br)cc32)c(C)c1` (centres undefined), the z-score is 0.0794.

Turning to `CCOC(=O)N1CCN(C(=O)c2cn(C)c(=O)c3c2c2ccccc2n3C)CC1`, the z-score was -0.908.

Turning to `COC(=O)/C(N=Nc1cccc(C(F)(F)F)c1)=C(\C)O`, the z-score is -0.101.

Turning to `CC(=O)C1C(c2ccc3ncccc3c2)NC(=O)NC1(O)C(F)(F)F` (centres undefined), the z-score stood at 0.355.

`C=CCn1c(=O)c(C(=O)NCCN(CC)CC)c(O)c2ccccc21` returned a z-score of -0.224.

With `O=c1c2[nH]c3cccc(Cl)c3c2ncn1CCN1CCCCC1`, the z-score was -0.00909.

As for `CC(C)(C)NCCOc1ccc(Br)cc1`, the z-score is -0.0295.

Molecule `CC1CCCN(CCCOc2ccc([N+](=O)[O-])cc2)C1` (centres undefined) yielded a z-score of 0.0526.

With `Cc1cc(OCCCCNC(C)C)cc(C(C)C)c1`, the z-score was 0.32.

The molecule `Cc1c(C(=O)Nc2ccc(F)cc2)c2ccccn2c1CCc1ccncc1` came in with a z-score of -0.369.

On to `C/C(=N\NC(=O)Cc1c(C)[nH][nH]c1=O)c1ccc2ccccc2c1`, for which the z-score is -0.0708.

Take `COc1ccccc1S(=O)(=O)Cc1ccc(C(=O)NCCN(C)C)o1`: the z-score was 0.66.

In turn, `COC(=O)C1(C)NC(c2ccc(O)cc2)C2C(=O)N(c3ccc4c(c3)OCCO4)C(=O)C21` (centres undefined) showed a z-score of -0.191.

Take `Cc1nn(Cc2cccc(C(=O)Nc3ccn(Cc4ccccc4F)n3)c2)c(C)c1[N+](=O)[O-]`: the z-score is -0.0852.

`C/C(CC(=O)Nc1ccccn1)=N\NC(=O)C(=O)Nc1ccccc1C` displayed a z-score of 0.805.

`CC1CCN(CC(=O)c2c[nH]c3ccccc23)CC1` had a z-score of -0.0411.

As to `COc1ccc(-c2cc(C(=O)Nc3ccc(Cl)cc3Cl)c3ccccc3n2)cc1OC`, the z-score was -0.487.

Turning to `COc1ccc(N=C2SC(CC(=O)Nc3ccccc3)C(=O)N2Cc2ccco2)cc1` (centres undefined), the z-score is -0.00683.

Molecule `O=c1sc(/C=N/Nc2ccccc2)c(Cl)n1Cc1ccccc1` displayed a z-score of -0.641.

`NC(=O)CNC1CC(=O)N(CCc2ccccc2)C1=O` (centres undefined) came in with a z-score of -0.236.

For `CCOc1ccc(C(C(=O)NC2CCCC2)N(Cc2ccccc2)C(=O)c2nsc(Cl)c2Cl)cc1` (centres undefined), the z-score was -0.145.

Molecule `CN(C)CCCN1C(=O)C(=O)/C(=C(/O)c2ccc3c(c2)OCO3)C1c1ccccn1` (centres undefined) had a z-score of 0.413.

`CC1=C(C(=O)OCC(C)C)C(c2cccs2)NC(=S)N1` (centres undefined) displayed a z-score of -0.0977.

`CCOc1ccc(C2C(C(=O)c3ccco3)=C(O)C(=O)N2Cc2cccnc2)cc1` (centres undefined) came in with a z-score of -0.347.

Turning to `O=c1c2ccccc2nnn1CSc1nc2cc(Cl)ccc2c(=O)n1Cc1ccco1`, the z-score worked out at 0.441.

The molecule `Cc1ccc(S(=O)(=O)NC(=O)c2cccn2C)cc1` came in with a z-score of 0.161.

For the molecule `CC(C)C(NC(=S)NCc1ccccc1)C(=O)O` (centres undefined), the z-score was determined as 0.259.

In the case of `CCOC(=O)C1=C(C)N=c2s/c(=C\c3ccc(OC(C)=O)c(OCC)c3)c(=O)n2C1/C=C/c1ccccc1` (centres undefined), the z-score was -0.293.

`CCOC(=O)C1C(c2cc(OC)c(O)c(OC)c2)NC(=S)NC1(O)C(F)(F)F` (centres undefined) displayed a z-score of 0.174.

Regarding `Cc1ccc(SCC(=O)Nc2cccc(C(=O)NC(C)(C)C)c2)cc1`, the z-score was -0.323.

The molecule `Cc1cc(S(=O)(=O)Nc2cccnc2)c(C)s1` showed a z-score of -0.886.

In the case of `CCOc1ccc(C(Nc2ccc(C)cc2)P2(=O)OCCCO2)cc1` (centres undefined), the z-score was -0.0948.

In turn, `Cc1ccc(OCc2nnc(SCC(=O)c3ccccc3)n2-c2ccccc2)cc1` returned a z-score of -0.337.

Turning to `COc1ccc(CCNC(=O)CSc2nnc(Cn3c(=O)sc4ccccc43)n2C)cc1OC`, the z-score was -0.436.

The molecule `O=C(O)CCCCCNS(=O)(=O)c1cccc2nsnc12` showed a z-score of -0.331.

For the molecule `COc1cc2c(cc1OC)CN(Cc1cc(=O)oc3cc(C)c(Cl)cc13)CC2`, the z-score is -0.123.

Take `Cc1ccc(S(=O)(=O)NNC(=S)Nc2ccccc2)cc1`: the z-score is -0.201.

In turn, `COc1ccccc1C(=O)Nc1nc(-c2ccc(S(=O)(=O)N3CCOCC3)cc2)cs1` came in with a z-score of -0.185.

The molecule `Clc1ccccc1Cn1nnc2c(N3CCCC3)ncnc21` returned a z-score of -0.729.

`Cn1nnnc1SCc1ccc(C(=O)Nc2nccs2)cc1` came in with a z-score of 0.138.

`Cc1cc(C)nc(/N=C2\NC(=O)CC(C(=O)O)N2CCc2c[nH]c3ccccc23)n1` (centres undefined): the z-score was 0.285.

As to `COc1nc(-c2ccccc2)cc(-c2ccccc2)n1`, the z-score came to 2.45.

In turn, `COC(=O)Cc1c(O)ccn(Cc2ccccc2OC)c1=O` showed a z-score of -0.109.

For `CCN(CC)CCCN1C(=O)C(=O)/C(=C(/O)c2cnn(-c3ccccc3)c2C)C1c1ccncc1` (centres undefined), the z-score is -0.137.

The molecule `Cn1cc(CNC(=O)c2sc3cccc(Cl)c3c2Cl)cn1` showed a z-score of -0.31.

`COC(=O)/C(=C\c1c[nH]c2ccccc12)NC(C)=O` yielded a z-score of 0.206.

On to `CCOC(=O)C(C)n1cnc2c1c(=O)[nH]c(=O)n2C` (centres undefined), for which the z-score was -0.374.

For the molecule `O=C(N/N=C/C=C/c1ccccc1)c1cccc(Br)c1`, the z-score is 0.831.

Take `Cc1cc(NS(=O)(=O)c2ccc(NC(=O)CCCC(=O)O)cc2)nc(C)n1`: the z-score turned out to be 0.622.

On to `CC1CC(=O)N(c2ccc(NCc3ccccc3Cl)c([N+](=O)[O-])c2)C1=O` (centres undefined), for which the z-score was -0.202.

Consider `CCCC(=O)Nc1ccc(Nc2ccccc2)cc1`, for which the z-score is 0.0261.

`O=C1CN(C(=O)CN2CCCC2)C(c2ccccc2)c2cc(Br)ccc2N1` (centres undefined) registered a z-score of 0.587.

Turning to `CN1C(=O)C(O)(c2sc(N)nc2-c2ccccc2)c2ccccc21` (centres undefined), the z-score was -0.46.
